Among all 310,000 compounds or so, about 14,000 (4.5%) showed an effect of 50% or more. Effects have a minus sign here. The list shows a part of the results.
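Also: peak tail current of the secondary pulse compared with the same well before compound.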

Sequence of human ether-à-go-go-related gene (hERG) potassium channel (Q12809 whole entry, looked up): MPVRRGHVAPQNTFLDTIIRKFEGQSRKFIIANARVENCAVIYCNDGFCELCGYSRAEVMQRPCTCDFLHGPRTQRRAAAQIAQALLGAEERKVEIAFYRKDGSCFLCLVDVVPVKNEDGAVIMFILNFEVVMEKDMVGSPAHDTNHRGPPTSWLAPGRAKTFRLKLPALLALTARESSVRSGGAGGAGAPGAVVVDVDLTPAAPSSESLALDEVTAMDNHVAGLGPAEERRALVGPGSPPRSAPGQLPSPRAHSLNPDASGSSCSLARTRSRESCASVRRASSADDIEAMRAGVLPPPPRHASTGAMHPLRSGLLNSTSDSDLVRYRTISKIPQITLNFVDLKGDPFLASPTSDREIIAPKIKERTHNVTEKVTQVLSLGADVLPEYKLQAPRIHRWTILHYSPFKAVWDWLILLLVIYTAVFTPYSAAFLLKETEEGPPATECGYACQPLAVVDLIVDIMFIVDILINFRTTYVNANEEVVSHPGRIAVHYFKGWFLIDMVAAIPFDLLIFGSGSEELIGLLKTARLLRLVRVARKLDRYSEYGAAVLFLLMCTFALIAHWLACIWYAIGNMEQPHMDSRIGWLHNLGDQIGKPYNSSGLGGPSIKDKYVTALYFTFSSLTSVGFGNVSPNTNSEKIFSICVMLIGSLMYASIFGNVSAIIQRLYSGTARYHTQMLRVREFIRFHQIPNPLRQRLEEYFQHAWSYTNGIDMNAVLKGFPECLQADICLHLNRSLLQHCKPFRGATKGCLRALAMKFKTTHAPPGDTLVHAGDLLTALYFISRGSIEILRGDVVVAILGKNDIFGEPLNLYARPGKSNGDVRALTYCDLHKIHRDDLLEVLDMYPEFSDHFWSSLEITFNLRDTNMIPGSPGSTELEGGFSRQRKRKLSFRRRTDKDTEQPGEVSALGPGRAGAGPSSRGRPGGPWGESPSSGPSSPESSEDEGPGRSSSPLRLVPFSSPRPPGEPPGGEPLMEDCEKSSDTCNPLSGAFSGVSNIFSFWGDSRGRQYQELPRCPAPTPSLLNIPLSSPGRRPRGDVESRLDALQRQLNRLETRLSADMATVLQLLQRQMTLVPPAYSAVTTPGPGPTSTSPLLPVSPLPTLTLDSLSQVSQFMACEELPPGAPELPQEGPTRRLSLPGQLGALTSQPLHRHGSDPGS

This assay addresses human ether-à-go-go-related gene (hERG) potassium channel (human, UniProt Q12809). The assay can be described thus: primary screen, population patch clamp on CHO cells stably expressing hERG.
As for `CCCOc1ccc(NC(=O)c2cc3cc(C)ccc3[nH]2)cc1`, the “hERG current change (%, negative = inhibition) at 10uM” value turned out to be 16.8%.
As to `Nc1ccccc1Nc1ccncc1[N+](=O)[O-]`, the “hERG current change (%, negative = inhibition) at 10uM” value came out at 20%.
As to `O=C(NN/C(=N/S(=O)(=O)c1ccc(Cl)cc1)c1ccccc1)c1cccc(Cl)c1`, the “hERG current change (%, negative = inhibition) at 10uM” value is listed as 0.271%.
In the case of `C[C@H]1CCC(=O)N([C@H](CSc2ccc(Br)cc2)Cc2ccccc2)CC1`, the “hERG current change (%, negative = inhibition) at 10uM” value is listed as 7.31%.
On to `CCCc1[nH]nc2c1C(CCc1ccccc1)C(C#N)=C(N)O2` (stereo not shown), for which the “hERG current change (%, negative = inhibition) at 10uM” value is listed as -13.2%.
Turning to `Cc1noc(C)c1COc1ccc(CC(=O)NCc2ccccc2)cc1`, the “hERG current change (%, negative = inhibition) at 10uM” value is on record as -3.71%.
As for `COC(=O)c1ccc(N(C(=O)c2ccco2)C(C(=O)NC2CCCC2)c2ccco2)cc1` (stereo not shown), the figure is -16.6%.
The value for `CC(=O)O[C@@H]1[C@H](OC(=O)CC(C)C)c2c(ccc3ccc(=O)oc23)OC1(C)C` was -67.2%; that for `COc1cc(Cl)c(S(=O)(=O)NCCCN2CCOCC2)cc1Cl` was -4.68%.
Consider `CSc1ncc(C(=O)Nc2cccc(S(N)(=O)=O)c2)n1-c1ccccc1`, for which the “hERG current change (%, negative = inhibition) at 10uM” value is given as 30.7%.
With `Cc1ccc(-c2nnn(CC(=O)N(c3ccccc3F)C(C(=O)NCC3CCCO3)c3c[nH]c4ccccc34)n2)cc1` (stereo not shown), the “hERG current change (%, negative = inhibition) at 10uM” value is on record as 0.81%.
Consider `N#CC1=C(N)Oc2n[nH]c(-c3ccncc3)c2C1c1ccsc1` (stereo not shown), for which the “hERG current change (%, negative = inhibition) at 10uM” value is -14.6%.
As for `O=C(NCc1cccnc1)C(=O)NCC1CCCO1` (stereo not shown), the figure is 21.5%; as for `CCn1cc(CN2CCCC(C(=O)c3sccc3C)C2)cn1` (stereo not shown), -27.3%; as for `CC(=O)Nc1ccc(S(=O)(=O)Nc2cc(C)cn(Cc3ccc(C)cc3)c2=O)cc1`, 2.09%.
Turning to `O=C(O)c1cc2c(o1)CCC/C2=N\O`, the “hERG current change (%, negative = inhibition) at 10uM” value is 15.6%.
With `CC1(C)CN(c2ccc(-c3ccnc4ncnn34)cc2)C1=O`, the “hERG current change (%, negative = inhibition) at 10uM” value came out at 13.6%.
As for `CCN(C(=O)CSc1nc2cc(C(F)(F)F)ccc2n1Cc1ccccc1)C1CCS(=O)(=O)C1` (stereo not shown), the “hERG current change (%, negative = inhibition) at 10uM” value is -31.7%.
Regarding `CCOc1cc(C(=O)NCCOC)ccc1OC`, the “hERG current change (%, negative = inhibition) at 10uM” value amounted to 1.01%.
In the case of `COc1ccc(CNCC(O)(c2ccccc2)c2ccc(F)cc2)cc1` (stereo not shown), the “hERG current change (%, negative = inhibition) at 10uM” value is recorded as -73.3%.
With `CCOc1ccc2nc(N3CCC(C(=O)N4CCN(c5ccccn5)CC4)CC3)sc2c1`, the “hERG current change (%, negative = inhibition) at 10uM” value was -45.7%.
Turning to `CC1CC(C)CN(CCOc2cccc3ccccc23)C1` (stereo not shown), the “hERG current change (%, negative = inhibition) at 10uM” value is -26.8%.
Turning to `Cc1ccccc1NC1=C(Cl)C(=O)OC1NC(=O)c1ccccc1` (stereo not shown), the “hERG current change (%, negative = inhibition) at 10uM” value is 8.94%.
As for `CCC(=O)Nc1cccc(-c2cn3ccccc3n2)c1`, the figure is 5.99%.
As for `Cc1cccnc1NC(=S)NCc1ccco1`, the “hERG current change (%, negative = inhibition) at 10uM” value was -2.97%.
With `Cc1cc(OC(=O)C(c2ccccc2)c2ccccc2)c([N+](=O)[O-])c(=O)[nH]1`, the “hERG current change (%, negative = inhibition) at 10uM” value is recorded as 22.4%.
Consider `Nc1nc2nccc(-c3ccccn3)n2n1`, for which the “hERG current change (%, negative = inhibition) at 10uM” value was 9.01%.
As for `O=C1COc2ccc(N3C(=O)c4ccccc4C3=O)cc2N1`, the “hERG current change (%, negative = inhibition) at 10uM” value was 27.5%.
Take `COc1ccccc1CCNC(=O)CCNS(=O)(=O)c1ccc(NC(C)=O)cc1`: the “hERG current change (%, negative = inhibition) at 10uM” value was determined as 11.9%.
The value for `Cc1ccc(C(=O)COC(=O)c2cccc(NC(=O)c3ccc([N+](=O)[O-])cc3[N+](=O)[O-])c2)cc1` was 5.39%; that for `Cc1cccc(C(C)C)c1NC(=O)C1CN(S(=O)(=O)c2ccccc2)CCN1S(=O)(=O)c1ccccc1` (stereo not shown) was 5.83%.
With `CCc1nnc(N/N=C/c2ccccc2Cl)n1N.Cl`, the “hERG current change (%, negative = inhibition) at 10uM” value was found to be 9.59%.
For the compound `CC(C)(C)c1cc(NC(=O)c2ccc(OC3CCCC3)cc2)no1`, the “hERG current change (%, negative = inhibition) at 10uM” value was found to be 14.2%.
Take `CC1CCN(C(=O)c2cc(-c3ccco3)on2)CC1`: the “hERG current change (%, negative = inhibition) at 10uM” value is on record as -9.01%.
The value for `O=C(NCc1ccccc1F)C1CCCN1C(=O)Nc1cccc(F)c1` (stereo not shown) was 2.32%.
In the case of `O=C(O)C1CC=CCC1C(=O)c1ccccc1` (stereo not shown), the “hERG current change (%, negative = inhibition) at 10uM” value was -0.335%.
Consider `Cc1cc(C)nc(NC(=O)c2ccc(Br)s2)n1`, for which the “hERG current change (%, negative = inhibition) at 10uM” value turned out to be 14.5%.
As for `CCN(CC)C(=O)Cn1cc(S(=O)(=O)CC(=O)N2CCOCC2)c2ccccc21`, the figure is 6.33%; as for `Cc1ccc(Cl)cc1NC(=O)c1cnn2c1NC(c1ccco1)CC2C(F)(F)F` (stereo not shown), -14.3%.
`OC(COc1cccc2ccccc12)CN1CCN(c2cccc(Cl)c2)CC1` (stereo not shown): the “hERG current change (%, negative = inhibition) at 10uM” value was found to be 1.82%.
As for `N/C(=N\OC(=O)c1cc([N+](=O)[O-])ccc1Cl)c1cccnc1`, the figure is 2.44%; as for `C/C(=N\NC(=O)c1c(Cl)c(C)nn1C)c1cccc(NC(=O)COc2ccc(Cl)cc2)c1`, 4.19%; as for `O=C1CNC(=O)/C1=C\N1CCCCC1`, 14.3%.
As for `CC(C)(C)NS(=O)(=O)c1ccc(NS(=O)(=O)c2ccc(F)cc2)cc1`, the figure is 9.98%.
As to `OCCC1CN(Cc2cn[nH]c2C2CCCCC2)CCN1Cc1ccccc1` (stereo not shown), the “hERG current change (%, negative = inhibition) at 10uM” value was 0.824%.
For `CC1CCCN(C(=O)C2CCN(c3ncnc4c3nc3n4CCCCC3)CC2)C1` (stereo not shown), the “hERG current change (%, negative = inhibition) at 10uM” value is -6.03%.
As for `C/C(=N\O)c1ccc(Cl)c(Cl)c1`, the figure is 6.14%; as for `O=c1[nH]c(CN2CCN(S(=O)(=O)c3ccc4ccccc4c3)CC2)nc2ccccc12`, 2.03%; as for `CC(C(=O)NCC1CCCCC1)N(C)Cc1cccc(Cl)c1` (stereo not shown), -14.5%.
For `CC(=O)c1cccc(NC(=O)COc2ccccc2C(=O)c2cc(C#N)c(=O)n(C3CCCCC3)c2)c1`, the “hERG current change (%, negative = inhibition) at 10uM” value was -20.5%.
Take `COc1ccc(C(=O)NCCc2cc3c(OC)ccc(OC)c3[nH]c2=O)cc1OC`: the “hERG current change (%, negative = inhibition) at 10uM” value is listed as -1.06%.
`Cl.N[C@@H](CO)c1cn([C@@H](Cc2cc3ccccc3[nH]2)C(=O)N2CCNCC2)nn1`: the “hERG current change (%, negative = inhibition) at 10uM” value stood at 10.2%.
As for `CN(C)c1ccc(NC(=O)CC2NCCNC2=O)cc1` (stereo not shown), the figure is 6.28%; as for `O=C(c1ccc2ccccc2c1)N1CCN(Cc2ccccc2)CC1`, -24.4%; as for `O=C1NC(=O)C(=Cc2ccc(-c3ccc(S(=O)(=O)N4CCOCC4)cc3)o2)C(=O)N1`, 12.2%.
With `Cc1ccsc1-c1nc(CSCC(=O)N2CCC3(CC2)OCCO3)c(C)o1`, the “hERG current change (%, negative = inhibition) at 10uM” value amounted to 6.53%.
`COCCn1nnnc1CN1CCOCC1.Cl`: the “hERG current change (%, negative = inhibition) at 10uM” value was 6.72%.
The value for `Cc1cccc(C(=O)NNC(=O)c2cccc(C)c2)c1` was 15.9%; that for `CC(C)CCN1C(=O)CCC1(C)C(=O)NC1CCCCCC1` (stereo not shown) was -4.75%.
As for `Cc1ccccc1CN1CCC(Oc2ccc(C(=O)N3CCCC3)cc2)CC1`, the figure is -13.7%; as for `Cc1cc(Cl)n2ncc(-c3ccccc3)c2n1`, -15.2%.
Consider `O=C(/C=C/c1ccco1)Nc1cccnc1`, for which the “hERG current change (%, negative = inhibition) at 10uM” value is recorded as 1.95%.
Turning to `Cc1cccc(CN2CCN(Cc3cccc4nonc34)CC2CCO)n1` (stereo not shown), the “hERG current change (%, negative = inhibition) at 10uM” value is reported as -24.1%.
For the compound `COc1cc(NC(=O)C2CC2)c(C(=O)O)cc1OC`, the “hERG current change (%, negative = inhibition) at 10uM” value is reported as 6.36%.
Regarding `CCn1cc(C(=O)NCc2ccncc2)c(=O)c2cc(F)c(N3CCN(C(=O)c4ccco4)CC3)cc21`, the “hERG current change (%, negative = inhibition) at 10uM” value is given as -66.4%.
As to `CN(C)c1ccc(C(CC(=O)O)NC(=O)c2ccc(Cl)cc2)cc1` (stereo not shown), the “hERG current change (%, negative = inhibition) at 10uM” value is recorded as -9.38%.
With `CCn1c(O)c(N=NC(=O)c2cccnc2)c2cc(Br)ccc21`, the “hERG current change (%, negative = inhibition) at 10uM” value is reported as -2.17%.
In the case of `CC(=O)Nc1sc(C)c(C)c1C(=O)OCC(=O)N(Cc1ccccc1)C(C)C`, the “hERG current change (%, negative = inhibition) at 10uM” value is listed as 10.1%.
Take `CC(C)CNC(=O)NC(=O)COC(=O)C1CSC2(c3ccc(F)cc3)CCC(=O)N12` (stereo not shown): the “hERG current change (%, negative = inhibition) at 10uM” value was found to be 4.49%.
Regarding `COC(=O)CCc1c(C)c(C(=O)c2cc(F)c(F)c(F)c2F)c2ccccn12`, the “hERG current change (%, negative = inhibition) at 10uM” value is -28.4%.
In the case of `O=C(c1ccco1)c1cn(CC(=O)N2CCCCC2)c2ccccc12`, the “hERG current change (%, negative = inhibition) at 10uM” value is listed as -6.34%.
In the case of `Cc1c(C)n(Cc2ccccc2)c2ncnc(NCCCO)c12`, the “hERG current change (%, negative = inhibition) at 10uM” value is recorded as 18.4%.
With `CC(=O)c1c(C)n([O-])c2ccccc2[n+]1=O`, the “hERG current change (%, negative = inhibition) at 10uM” value came out at 10.3%.
Consider `CCCCn1c(N)c(N(CC(C)C)C(=O)c2cccc(OCc3ccccc3)c2)c(=O)[nH]c1=O`, for which the “hERG current change (%, negative = inhibition) at 10uM” value turned out to be 20%.
The value for `CCCCC/C=C/C1=CC(=O)C[C@H](c2ccc(OC)cc2)C1` was -2.92%; that for `COc1ccc(Nc2nc3ccccc3s2)cc1` was 18%; that for `COc1ccc(Cc2nc3ccc(C(=O)N4CCC[C@H]4CO)cc3o2)cc1` was -0.571%.
For the compound `O=C(NCC(=O)N(c1ccc(F)cc1)C(C(=O)NC1CCCCC1)c1cccnc1)c1ccco1` (stereo not shown), the “hERG current change (%, negative = inhibition) at 10uM” value worked out at 4.87%.
As for `C=CCOc1c(Br)cc(/C=C(\C#N)C(N)=O)cc1OC`, the “hERG current change (%, negative = inhibition) at 10uM” value is listed as -5.83%.
For the compound `CCN(C(=O)CSc1ncccc1C(=O)Oc1cccc([N+](=O)[O-])c1)c1cccc(C)c1`, the “hERG current change (%, negative = inhibition) at 10uM” value is recorded as 2.56%.
Turning to `N#Cc1cc([N+](=O)[O-])ccc1NC(=O)COC(=O)C1CC2CCCC(C1)C2=O` (stereo not shown), the “hERG current change (%, negative = inhibition) at 10uM” value was -18.3%.
For `CCc1nc(SCC(=O)NCCc2ccccc2)c2c(=O)n(C)c(=O)n(C)c2n1`, the “hERG current change (%, negative = inhibition) at 10uM” value is -7.8%.
For the compound `COc1ccccc1CNC(=O)Cn1cc([N+](=O)[O-])ccc1=O`, the “hERG current change (%, negative = inhibition) at 10uM” value was found to be 15.2%.
In the case of `O=C(NC1CCCc2ccccc21)c1ccc(Br)cc1` (stereo not shown), the “hERG current change (%, negative = inhibition) at 10uM” value is -7.78%.
As to `CC(C)Cn1c(=O)c(C(=O)NCc2ccc3c(c2)OCO3)c(O)c2ccccc21`, the “hERG current change (%, negative = inhibition) at 10uM” value was determined as 16.4%.
For the compound `CC(=O)Nc1ccc(OCc2cnc(Cl)s2)cc1`, the “hERG current change (%, negative = inhibition) at 10uM” value stood at 11.3%.
As for `COc1cccc(/C=C2\Oc3cc(OC(=O)N4CCOCC4)ccc3C2=O)c1`, the figure is 14.2%.
Take `O=C(OCC(=O)N1c2ccccc2Sc2ccccc21)C1CC(=O)N(Cc2ccco2)C1` (stereo not shown): the “hERG current change (%, negative = inhibition) at 10uM” value is recorded as -5.25%.

Source of the values: publication PMC4336329 (PLoS ONE, 2015).
